The list shows a part of the results. Single values of this set are uncertain. Values with irradiation are relative to irradiated vehicle.

The test system of experiment [1] is A549-Dual. Briefly: NF-kB reporter (SEAP) activity, viability-corrected, relative to vehicle (fold change vs vehicle); higher = more activation of STING-IRF / NF-kB immune response reporter. To be noted: 10 µM.
The subject of experiment [2] is A549-Dual. Nature of the experiment: ISRE reporter (Lucia luciferase) activity, viability-corrected, relative to vehicle (fold change vs vehicle); higher = more activation of STING-IRF / NF-kB immune response reporter. To be noted: 10 µM.
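Wherever NF-kB reporter (SEAP) activity, viability-corrected, relative to vehicle is given: viability correction based on the alamar blue assay, with concentrations leaving 10% survival or less dropped.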

In the case of `Nc1ccc(S(=O)(=O)NC(=O)c2ccccc2)cc1` [Sulfabenzamide], the values for the NF-kB reporter in the experiment with A549-Dual [1] (irradiation: 8 Gy/4 fr) and in the experiment on A549-Dual [1] (irradiation: none) were 0.797 and 0.892, respectively. The ISRE reporter in the experiment on A549-Dual [2] (irradiation: 8 Gy/4 fr) was 0.712; in the experiment with A549-Dual [2] (irradiation: none), 0.707.

Turning to `CC(C)[C@H](N)C(=O)O` [L-Valine], the NF-kB reporter with A549-Dual [1] (irradiation: 8 Gy/4 fr) stood at 1.15; with A549-Dual [1] (irradiation: none), 0.775. The ISRE reporter is 1.1 in the experiment on A549-Dual [2] (irradiation: 8 Gy/4 fr) and 0.673 in the experiment on A549-Dual [2] (irradiation: none).

Regarding `NCCCS(=O)(=O)O` [Homotaurine], the NF-kB reporter amounted to 0.746 in the experiment on A549-Dual [1] (irradiation: 8 Gy/4 fr) and 1.25 in the experiment with A549-Dual [1] (irradiation: none). The figures for the ISRE reporter with A549-Dual [2] (irradiation: 8 Gy/4 fr) and in the experiment on A549-Dual [2] (irradiation: none) were 0.657 and 0.702, respectively.

Turning to `CC(CCC(=O)O)C1CCC2C3CC(O)C4CC(O)CCC4(C)C3CCC12C` (configuration not stated) [Hyodeoxycholic acid (HDCA)], the NF-kB reporter in the experiment with A549-Dual [1] (irradiation: 8 Gy/4 fr) was 0.982; with A549-Dual [1] (irradiation: none) it was 0.853. Further, the figures for the ISRE reporter in the experiment on A549-Dual [2] (irradiation: 8 Gy/4 fr) and in the experiment with A549-Dual [2] (irradiation: none) were 1.03 and 0.657, respectively.

Take `CC(=O)OCC1=C(C(=O)[O-])N2C(=O)C(NC(=O)Cc3cccs3)C2SC1.[Na+]` (configuration not stated) [Cephalothin]: the NF-kB reporter came out at 0.746 in the experiment on A549-Dual [1] (irradiation: 8 Gy/4 fr) and 0.992 in the experiment on A549-Dual [1] (irradiation: none). The results for the ISRE reporter with A549-Dual [2] (irradiation: 8 Gy/4 fr) and in the experiment on A549-Dual [2] (irradiation: none) were 0.69 and 0.746, respectively.

As for `COc1ccc(OC)c(C(O)CNC(=O)CN)c1` (configuration not stated) [Midodrine], the NF-kB reporter was 0.874 with A549-Dual [1] (irradiation: 8 Gy/4 fr) and 1.5 in the experiment on A549-Dual [1] (irradiation: none). The ISRE reporter stood at 1.04 in the experiment with A549-Dual [2] (irradiation: 8 Gy/4 fr) and 1.06 with A549-Dual [2] (irradiation: none).

In the case of `Cn1nnc(-c2ccc(-c3ccc(N4CC(CO)OC4=O)cc3F)cn2)n1` (configuration not stated) [Tedizolid], the NF-kB reporter with A549-Dual [1] (irradiation: 8 Gy/4 fr) came out at 0.707; in the experiment with A549-Dual [1] (irradiation: none) it was 1.37. The ISRE reporter with A549-Dual [2] (irradiation: 8 Gy/4 fr) stood at 0.523; with A549-Dual [2] (irradiation: none) it was 1.03.

Turning to `CC(S)C(=O)NCC(=O)O` (configuration not stated) [Tiopronin], the NF-kB reporter with A549-Dual [1] (irradiation: 8 Gy/4 fr) was 0.764; in the experiment with A549-Dual [1] (irradiation: none) it was 1.02. The ISRE reporter in the experiment on A549-Dual [2] (irradiation: 8 Gy/4 fr) is 0.878; in the experiment on A549-Dual [2] (irradiation: none), 0.816.

Regarding `CCC(C(C)O)n1ncn(-c2ccc(N3CCN(c4ccc(OCC5COC(Cn6cncn6)(c6ccc(F)cc6F)C5)cc4)CC3)cc2)c1=O` (configuration not stated) [Posaconazole], the NF-kB reporter amounted to 0.819 in the experiment on A549-Dual [1] (irradiation: 8 Gy/4 fr) and 1.23 in the experiment on A549-Dual [1] (irradiation: none). The ISRE reporter in the experiment with A549-Dual [2] (irradiation: 8 Gy/4 fr) was determined as 0.783; in the experiment on A549-Dual [2] (irradiation: none), 2.48.

On to `CC/C=C\C/C=C\C/C=C\C/C=C\C/C=C\C/C=C\CCC(=O)O` [Docosahexaenoic Acid], for which the NF-kB reporter amounted to 0.923 in the experiment on A549-Dual [1] (irradiation: 8 Gy/4 fr) and 0.913 in the experiment on A549-Dual [1] (irradiation: none). Moreover, the results for the ISRE reporter with A549-Dual [2] (irradiation: 8 Gy/4 fr) and with A549-Dual [2] (irradiation: none) were 0.542 and 0.446, respectively.

Consider `O=C(Nc1nc(-c2cc(Cl)cs2)c(N2CCN(C3CCCCC3)CC2)s1)c1cnc(N2CCC(C(=O)O)CC2)c(Cl)c1` [Avatrombopag], for which the NF-kB reporter with A549-Dual [1] (irradiation: 8 Gy/4 fr) was found to be 0.481; in the experiment on A549-Dual [1] (irradiation: none) it was 0.757. In addition, the results for the ISRE reporter in the experiment on A549-Dual [2] (irradiation: 8 Gy/4 fr) and with A549-Dual [2] (irradiation: none) were 0.294 and 0.394, respectively.

With `CCCCC1=NC2(CCCC2)C(=O)N1Cc1ccc(-c2ccccc2-c2nn[nH]n2)cc1` [Irbesartan], the NF-kB reporter in the experiment on A549-Dual [1] (irradiation: 8 Gy/4 fr) stood at 0.885; in the experiment on A549-Dual [1] (irradiation: none), 0.993. For the same molecule, the ISRE reporter in the experiment on A549-Dual [2] (irradiation: 8 Gy/4 fr) was determined as 0.778; in the experiment on A549-Dual [2] (irradiation: none), 0.736.

Consider `N[C@H](CO)C(=O)O` [(R)-Serine], for which the NF-kB reporter came out at 1.28 with A549-Dual [1] (irradiation: 8 Gy/4 fr) and 1.04 in the experiment on A549-Dual [1] (irradiation: none). The ISRE reporter with A549-Dual [2] (irradiation: 8 Gy/4 fr) came out at 1.4; in the experiment with A549-Dual [2] (irradiation: none), 1.11.

Take `CN(C)CCc1c[nH]c2ccc(CS(=O)(=O)N3CCCC3)cc12.O=C(O)CC(O)C(=O)O` [Almotriptan Malate]: the NF-kB reporter with A549-Dual [1] (irradiation: 8 Gy/4 fr) is 0.747; in the experiment on A549-Dual [1] (irradiation: none), 0.926. The ISRE reporter turned out to be 0.897 in the experiment with A549-Dual [2] (irradiation: 8 Gy/4 fr) and 0.826 with A549-Dual [2] (irradiation: none).

As to `CCC(=O)c1c(O)cc(O)cc1O` [Flopropione], the NF-kB reporter came out at 0.541 in the experiment with A549-Dual [1] (irradiation: 8 Gy/4 fr) and 1.01 with A549-Dual [1] (irradiation: none). In addition, the ISRE reporter is 0.369 in the experiment with A549-Dual [2] (irradiation: 8 Gy/4 fr) and 0.402 with A549-Dual [2] (irradiation: none).

As to `CO/N=C(\C(=O)NC1C(=O)N2C(C(=O)O)=C(COC(C)=O)CSC12)c1csc(N)n1` (configuration not stated) [Cefotaxime], the NF-kB reporter with A549-Dual [1] (irradiation: 8 Gy/4 fr) was 0.934; in the experiment with A549-Dual [1] (irradiation: none), 1.09. Moreover, the ISRE reporter in the experiment with A549-Dual [2] (irradiation: 8 Gy/4 fr) worked out at 0.75; with A549-Dual [2] (irradiation: none), 0.722.

For the molecule `CCCCCC(=O)OC1(C(C)=O)CCC2C3CCC4=CC(=O)CCC4(C)C3CCC21C` (configuration not stated) [Hydroxyprogesterone caproate], the NF-kB reporter with A549-Dual [1] (irradiation: 8 Gy/4 fr) was found to be 0.277; in the experiment on A549-Dual [1] (irradiation: none), 0.929. In addition, the ISRE reporter in the experiment with A549-Dual [2] (irradiation: 8 Gy/4 fr) came out at 0.0812; in the experiment on A549-Dual [2] (irradiation: none), 0.377.

For `OCCN(CCO)c1nc(N2CCCCC2)c2nc(N(CCO)CCO)nc(N3CCCCC3)c2n1` [Dipyridamole], the figures for the NF-kB reporter in the experiment with A549-Dual [1] (irradiation: 8 Gy/4 fr) and with A549-Dual [1] (irradiation: none) were 0.807 and 0.839, respectively. Also, the results for the ISRE reporter in the experiment with A549-Dual [2] (irradiation: 8 Gy/4 fr) and in the experiment on A549-Dual [2] (irradiation: none) were 0.933 and 1, respectively.

On to `CCCCCc1ccc(C)cc1O` [Amylmetacresol], for which the NF-kB reporter in the experiment with A549-Dual [1] (irradiation: 8 Gy/4 fr) is 0.787; in the experiment on A549-Dual [1] (irradiation: none), 1.05. In addition, the ISRE reporter in the experiment with A549-Dual [2] (irradiation: 8 Gy/4 fr) came to 0.717; in the experiment with A549-Dual [2] (irradiation: none), 0.915.

On to `c1coc(CNc2ncnc3nc[nH]c23)c1` [Kinetin], for which the NF-kB reporter in the experiment with A549-Dual [1] (irradiation: 8 Gy/4 fr) worked out at 0.829; with A549-Dual [1] (irradiation: none) it was 0.548. Also, the ISRE reporter stood at 0.811 in the experiment on A549-Dual [2] (irradiation: 8 Gy/4 fr) and 0.568 with A549-Dual [2] (irradiation: none).

As for `C=C1C(=O)OC2/C=C(\C)CC/C=C(\C)CCC12` (configuration not stated) [Costunolide], the NF-kB reporter was 0.592 in the experiment with A549-Dual [1] (irradiation: 8 Gy/4 fr) and 0.449 with A549-Dual [1] (irradiation: none). The ISRE reporter in the experiment on A549-Dual [2] (irradiation: 8 Gy/4 fr) was determined as 0.187; in the experiment with A549-Dual [2] (irradiation: none), 0.327.

Regarding `OCc1ccccc1` [Benzyl alcohol], the NF-kB reporter in the experiment with A549-Dual [1] (irradiation: 8 Gy/4 fr) came out at 1.02; in the experiment with A549-Dual [1] (irradiation: none) it was 0.703. Moreover, the ISRE reporter is 0.919 with A549-Dual [2] (irradiation: 8 Gy/4 fr) and 0.538 in the experiment on A549-Dual [2] (irradiation: none).

For `CC(NCCc1ccc(O)cc1)C(O)c1ccc(O)cc1.Cl` (configuration not stated) [Ritodrine HCl], the NF-kB reporter in the experiment with A549-Dual [1] (irradiation: 8 Gy/4 fr) was 1.29; in the experiment with A549-Dual [1] (irradiation: none), 0.601. In addition, the ISRE reporter in the experiment with A549-Dual [2] (irradiation: 8 Gy/4 fr) was found to be 1.49; in the experiment on A549-Dual [2] (irradiation: none), 0.711.

In the case of `Cc1ccccc1C(=O)Nc1ccc(C(=O)N2CCCC(O)c3cc(Cl)ccc32)c(C)c1` (configuration not stated) [Tolvaptan], the values for the NF-kB reporter with A549-Dual [1] (irradiation: 8 Gy/4 fr) and with A549-Dual [1] (irradiation: none) were 0.666 and 1.12, respectively. The ISRE reporter turned out to be 0.595 in the experiment on A549-Dual [2] (irradiation: 8 Gy/4 fr) and 0.907 in the experiment on A549-Dual [2] (irradiation: none).

`OC(CNCC(O)C1CCc2cc(F)ccc2O1)C1CCc2cc(F)ccc2O1` (configuration not stated) [Nebivolol]: the NF-kB reporter with A549-Dual [1] (irradiation: 8 Gy/4 fr) was determined as 0.656; in the experiment with A549-Dual [1] (irradiation: none) it was 1.35. Moreover, the ISRE reporter with A549-Dual [2] (irradiation: 8 Gy/4 fr) worked out at 0.565; in the experiment on A549-Dual [2] (irradiation: none) it was 1.24.

On to `NCCC(O)C(=O)NC1CC(N)C(OC2OC(CN)C(O)C(O)C2O)C(O)C1OC1OC(CO)C(O)C(N)C1O.O=S(=O)(O)O.O=S(=O)(O)O` (configuration not stated) [Amikacin disulfate], for which the NF-kB reporter worked out at 0.976 with A549-Dual [1] (irradiation: 8 Gy/4 fr) and 1.07 in the experiment on A549-Dual [1] (irradiation: none). Moreover, the ISRE reporter with A549-Dual [2] (irradiation: 8 Gy/4 fr) was determined as 0.896; with A549-Dual [2] (irradiation: none), 1.07.

For `CCCCC/C=C\C/C=C\CCCCCCCC(=O)O` [Linoleic acid], the NF-kB reporter in the experiment on A549-Dual [1] (irradiation: 8 Gy/4 fr) turned out to be 0.96; in the experiment with A549-Dual [1] (irradiation: none), 0.68. For the same molecule, the results for the ISRE reporter in the experiment with A549-Dual [2] (irradiation: 8 Gy/4 fr) and in the experiment on A549-Dual [2] (irradiation: none) were 1.04 and 0.629, respectively.

For the molecule `CCOc1ccc(CC2NC(=O)CCSSCC(C(=O)N3CCCC3C(=O)NC(CCCN)C(=O)NCC(N)=O)NC(=O)C(CC(N)=O)NC(=O)C(C(C)O)NC(=O)C(C(C)CC)NC2=O)cc1` (configuration not stated) [Atosiban Acetate], the results for the NF-kB reporter with A549-Dual [1] (irradiation: 8 Gy/4 fr) and in the experiment with A549-Dual [1] (irradiation: none) were 0.825 and 0.724, respectively. The ISRE reporter in the experiment on A549-Dual [2] (irradiation: 8 Gy/4 fr) worked out at 0.83; in the experiment on A549-Dual [2] (irradiation: none), 0.711.

(Values after the supplement of paper PMC9174493.)
